The supplement of paper PMC4166925
± gives the standard deviation of the averaged measurements. The full ranking holds about 33,000 sequences; the median of “E-score (dimensionless, -0.5 to 0.5)” is about -0.046, and the highest 2% start at about 0.36. The list shows a part of the results.

tested on: T1, SpTbr T-box DNA-binding domain (GST fusion); assay: PBM E-score of 8-mer (E-score (dimensionless, -0.5 to 0.5)); Tbr is Tbrain of the sea star Patiria miniata (Pm) or the sea urchin Strongylocentrotus purpuratus (Sp); higher = stronger binding preference; most listed sequences are background and not binding sites; settings: the construct has about 5 more residues each side
T1 sequence: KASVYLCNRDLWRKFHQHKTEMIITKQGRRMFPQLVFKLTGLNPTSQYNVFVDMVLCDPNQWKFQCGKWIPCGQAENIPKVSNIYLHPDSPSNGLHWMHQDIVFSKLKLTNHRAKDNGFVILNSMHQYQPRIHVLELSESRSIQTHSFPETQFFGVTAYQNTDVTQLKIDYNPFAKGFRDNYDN
Description: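 Universal protein-binding microarray (Agilent AMADID 016060, 60-bp probes with a 35-bp variable region) incubated with 200 nM GST-fused Strongylocentrotus purpuratus Tbr T-box DNA-binding domain (residues 362-554) in PBS pH 7.5. Scored for every ungapped 8-mer (given with its reverse complement) as E-score (range -0.5 to 0.5; >0.45 counts as bound) and Z-score of median probe intensity. Two replicate arrays (datasets 1 and 2).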
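Note: protein at 200 nM in PBS on universal double-stranded arrays.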

Sequence	PBM E-score of 8-mer
CCATAGTC	-0.0156 ± 0.029
GAATGGTC	-0.112 ± 0.044
ACAATGGT	-0.00439 ± 0.055
AAGCGATT	-0.217 ± 0.036
ATTCCAGG	-0.218 ± 0.03
AACCCCAA	-0.0577 ± 0.052
ACCTGTAC	-0.148 ± 0.024
AGACCTCG	-0.175 ± 0.029
CCCGTCCA	-0.253 ± 0.03
GATAAGTA	-0.0412 ± 0.026
GATCCGCA	0.117 ± 0.044
CCCGCATC	-0.12 ± 0.047
CGAACGAC	0.0742 ± 0.007
CCTGACAA	0.153 ± 0.0094
TACGGCAA	-0.1681 ± 0.001
AGGCTGTC	0.00841 ± 0.0021
CCAGGGTC	0.0269 ± 0.035
CATGCGGG	-0.14 ± 0.065
CAAGCGTC	0.167 ± 0.013
AGGCGGGA	0.0497 ± 0.0048
ATGGCTAC	-0.29 ± 0.017
GAGACATC	-0.213 ± 0.051
GACTACTA	-0.176 ± 0.055
CTATAAGC	0.0365 ± 0.056
AAGAAAAT	-0.108 ± 0.19

Sequence	PBM E-score of 8-mer
CAGGTACG	-0.105 ± 0.078
CGCAATCA	0.254 ± 0.044
GCGCGGAA	0.104 ± 0.06
CAGGTGTA	0.358 ± 0.0037
GCTGCGTA	-0.00783 ± 0.012
GTCCAATA	-0.183 ± 0.036
GAAGGGCC	-0.301 ± 0.0059
GAGACGCA	-0.224 ± 0.062
CAGTGAAC	0.0151 ± 0.01
GTAACCAA	-0.094 ± 0.078
ACTTTCAA	0.0855 ± 0.0062
GATAAGAC	-0.132 ± 0.031
GCCTGCGC	-0.167 ± 0.0057
ACACCGGA	0.0158 ± 0.026
GACGTAAA	-0.0319 ± 0.036
ACCAGGCC	-0.0574 ± 0.021
TAAATCGA	-0.0294 ± 0.035
CAGTGGGG	-0.0704 ± 0.058
GAGGAAAC	-0.00485 ± 0.068
CCCGCTAA	0.229 ± 0.012
AACAGATA	0.128 ± 0.033
ACCTATAA	0.0305 ± 0.073
CTGCTGTC	-0.0164 ± 0.04
ATCGAGTC	-0.0285 ± 0.051
GACTTACA	0.071 ± 0.04

Sequence	PBM E-score of 8-mer
CACTAGTA	0.163 ± 0.075
GATGCCTA	-0.279 ± 0.11
GCGGTGCC	0.00669 ± 0.075
GATGCCAC	0.23 ± 0.013
AGTTTCGC	0.232 ± 0.013
ACCTTAAC	0.0189 ± 0.043
GGTGTATA	0.0761 ± 0.077
AACCGTCC	-0.0341 ± 0.016
ATTAAGAG	-0.232 ± 0.011
ACCAGCCC	-0.241 ± 0.056
CACCACAC	0.3556 ± 0.0015
CGTGACAG	0.217 ± 0.019
ATCCGACA	0.108 ± 0.011
AGCGCGGG	-0.009 ± 0.12
CCGAAGCA	-0.00602 ± 0.051
CAACATTG	0.11 ± 0.029
CATGTAGA	-0.248 ± 0.053
GCTGGATA	-0.149 ± 0.026
ATCTGCAC	0.0473 ± 0.028
GACTTTCC	-0.0261 ± 0.013
AGACGATG	-0.109 ± 0.038
CGCGGTGC	0.0699 ± 0.082
AGGGGAGG	-0.19 ± 0.0058
ATCCACAT	0.046 ± 0.0025
AAACAGTG	-0.071 ± 0.047

Sequence	PBM E-score of 8-mer
CAACTTCG	0.0821 ± 0.006
CTTCCTGA	-0.192 ± 0.0037
AGCGTCCA	-0.224 ± 0.015
AATATTTG	0.0401 ± 0.029
CGATTGAC	0.17 ± 0.033
ATACGGGA	-0.154 ± 0.055
ACCCGACA	0.247 ± 0.0042
CCTATATA	0.000255 ± 0.073
CAAGCTAA	-0.0767 ± 0.036
ACGCCAGA	0.00969 ± 0.053
AGACTCCG	-0.222 ± 0.046
GATTGCGA	0.262 ± 0.017
CATATCAG	-0.155 ± 0.0067
CGGTTGAC	0.2058 ± 0.0018
AGATTCTG	-0.121 ± 0.051
CGTAAAGA	-0.177 ± 0.085
CAGACCCA	-0.0355 ± 0.018
CTGCTAGA	0.0342 ± 0.0095
GCGTCCTA	-0.213 ± 0.026
CCCGGCCG	-0.0304 ± 0.0027
CATACATC	-0.0101 ± 0.062
GGGTACCC	-0.0754 ± 0.026
CAAAGCCA	-0.183 ± 0.032
AATACTGG	-0.329 ± 0.041
CCCAGCAC	0.0519 ± 0.051

Sequence	PBM E-score of 8-mer
AATTACAA	-0.0716 ± 0.01
AGATTTAT	-0.00615 ± 0.033
AACATAAA	-0.159 ± 0.017
GGGGACGA	-0.218 ± 0.092
ACAACACG	0.239 ± 0.0031
TTAGGCAA	-0.0324 ± 0.01
CCATACGG	-0.202 ± 0.018
ACTAGAGG	-0.111 ± 0.025
GGGAGCGA	0.0295 ± 0.041
GATCTAAA	-0.0448 ± 0.006
ATCACTCA	0.139 ± 0.018
CCGAGTGA	0.157 ± 0.02
GATACTCA	-0.225 ± 0.0066
GACTCGCC	-0.131 ± 0.0047
GGGATGCA	-0.24 ± 0.051
ACAATCTA	-0.0483 ± 0.0064
CATCTGGG	-0.105 ± 0.05
GCTTAGCC	-0.131 ± 0.015
CGCACACC	0.327 ± 0.036
ACGGCTTA	0.0426 ± 0.051
AGACACGA	-0.0522 ± 0.047
ATCTACCG	-0.155 ± 0.064
TGACTGAA	-0.0347 ± 0.091
AACTAGAG	-0.121 ± 0.15
GCCCAGGA	-0.1827 ± 0.0014

Sequence	PBM E-score of 8-mer
TAACTATA	-0.0992 ± 0.044
GCGGCAGC	0.0933 ± 0.05
GACTAGCA	0.0676 ± 0.022
AATCGAAT	-0.129 ± 0.06
ACGCTGTA	0.102 ± 0.047
ACGTAGGA	-0.214 ± 0.02
CTTTAGAA	-0.167 ± 0.032
CTGCCGCA	-0.0714 ± 0.043
CTATAATC	-0.114 ± 0.018
AGCGCCGC	0.091 ± 0.0034
CACCCGAA	0.151 ± 0.013
AATGCCGA	-0.0904 ± 0.14
GTCGTCGA	0.0692 ± 0.15
AGCAGAGA	-0.259 ± 0.039
GGCGAAAA	0.0241 ± 0.021
ACGAAATG	-0.0253 ± 0.033
GCATTTAA	-0.0933 ± 0.068
CCATCGCG	0.14 ± 0.078
GAAGTCCA	-0.108 ± 0.025
AGAAGGCA	-0.0541 ± 0.0098
CCGAGCAC	-0.0191 ± 0.066
AGTACGCC	-0.139 ± 0.023
ACGGTCTC	-0.0762 ± 0.06
ATTAGTCG	-0.0379 ± 0.062
CACATCAG	0.228 ± 0.033

Sequence	PBM E-score of 8-mer
GGGTAGTA	-0.213 ± 0.11
CGGCTTAG	-0.105 ± 0.025
ACTCCCTA	-0.0912 ± 0.011
CCTAACAC	0.4165 ± 0.0028
AAACTTCT	-0.146 ± 0.1
GGCAAGCC	-0.153 ± 0.07
AATTTGTG	0.0488 ± 0.1
AAGGACAA	-0.0652 ± 0.051
CCGGCTAA	-0.0862 ± 0.019
AACGCACT	0.0575 ± 0.047
CTGGGACA	-0.241 ± 0.058
TAGCGCAA	0.231 ± 0.016
GCGTATTA	0.00166 ± 0.048
GTAGCGCA	-0.148 ± 0.091
AGCTAGAG	-0.0382 ± 0.025
CGGCTTTC	-0.0277 ± 0.031
ACCCCTCT	-0.063 ± 0.085
ACTCCTTC	-0.0245 ± 0.025
ACCGTGTG	0.203 ± 0.052
GAGGTCTA	-0.284 ± 0.0014
GTTAGGCA	-0.0322 ± 0.014
CGCAATCC	0.0307 ± 0.032
